Assay results reported in the RNAGym collection of RNA variant scans (doi:10.1073/pnas.2313332121).
Variants at the floor of the assay are shown more often than the library holds them.

B1: TPR 5TU (parent)
chain: GGAUCUUCUCGAUCUAACAAAAAAGACAAAUCUGCCACAAAGCUUGAGAGCAUCUUCGGAUGCAGAGGCGGCAGCCUUCGGUGGCGCGAUAGCGCCAACGUUCUCAACUAUGACACGCAAAACGCGUGCUCCGUUGAAUGGAGUUUAUCAUG

Variants of: B1
Experiment: polymerase ribozyme fitness, log enrichment relative to wild type (log ratio); higher = more active; in vitro selection for triplet polymerase activity
Summary of the method: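 Mutant libraries were PCR-built and transcribed for each subunit of a heterodimeric triplet polymerase ribozyme and selected for one round in triplicate at −7 °C, frozen, before gel excision of extended constructs and streptavidin-bead capture. Input and output libraries were Illumina-sequenced, keeping genotypes with ≥10 input reads and ≥1 read per output. Fitness is a logarithmic ratio of genotype to wild-type enrichment, in base 2, using inverse-variance-weighted replicate averages.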

Polymerase ribozyme fitness (log ratio), ≤ -4.2:
C32U G50C C54U
C32G G50A A106U U145A
C32G U77A C85U
U31A C79G A110G
C32U C69A G83A A97U A115G
C32G U33A U78A A97U C108G
C32G U55A C57U C69A U90G C93U A122C G141C A150C
U31C C32A A41G U55G C75G U78C C95A G126C
C32A C57U G59A G84A C116G U135A A147U
C32G G80C C85A A107U U134A G140U
C32A C51U U53C C57A U109A
C32G G71A C87A
U31G U33G C43U G58A A97U
U31G C36U A52C C76U A91U C116A
U31G C35U C57G C87G A110G A113U A122G
C32G G34U A41U C43U A49U A64G G65A C85G U151C
A30U G86C
U31A U53G C99A
U31A A47G G59C G71A C116A U139A
U31G U45A G58A G88A C99A U144A
C32G G62C G68U G84C C87G U151A
C32A A49C G67C A73C G141C
U31G C87G C105A
U31G G42C G58U C75A U102G
C32G U53A
U33A A52G C93A G140U
U31C A52C G83U C87G G136A A142C
U31G G46U C54A C96U G133U
C32U C43G A47U A60C C76G
C32U U55G U101G U102G U134A
C32G G86C G100C
C32G C103G
U33A G58A C75U G86U C87A G92A
U31A C79U C105U A119G A137C
U31G A66U C95U
C32U C54A U55A C114U A115C
U31A G59A A73U U78C C79G C87U C93U U145G
C32G C35U C54A C75U G84U
C32A C72U U82G C85G G88A A115U C132U A142U
U31G U33A A64U C95U U146C
C32A A41G G50C U53A C63U A66C G88A A137U
U31G U45A U101G U102C A142C
C32A A40C C54A A66C C95U A120U C125U G133C A142U
U33A A37C C76G G124U
U33C A39C G74A A89G C95U A110G
C32A A52U G59U
U31G G34C G50A A73C C95A C96A A106G A120G U144G
C32U G50C U53A U55A G84U
C32A A47U C99U U102G C125U G143U
A30U G42C
U33C A39C G59U
C32G A60G U90A C93U G133C
C32A A60G C114U A119U A142U
U31G G42A A47C U53A U61C A115G
U31A C36A A52G C76A C95U C103A G124A G140U U145G
U31G C35A A41C U56A C57U A73U C87G C95U C96U
C32G G70C U82C
U31A G81C C93A C96G C118U U127C U145C
U31A G42A C69U C85A A142G
U31C U33A A98G
U31C A40C G81U C129G U135A A142C
C32G A37G U53A G68U G88U C96G
U31G A40C C57U A120U G136C A138U
U31C C63U G70C G86A U134A
C32A C99U G140A
C32G U33A C57U G86U C118G A120U C129A U135A G141C
U33A G65C U90C
U31C U44G C51G G83A A106G G140A
U33C A47C U109A G143U
U31G C32G A39G A52C C54U C131G G141C
U31A G65A C93U U102G
A30U G81A C96A C103U A106U G140C
A30U U33G G42A U90A C99A U135A U146C
C32U A73G C95G C96U U101G C103A A150U
U33A A89G A115U
U33A C35A G50A C87U C99A G136A
U33A A52G C87U U102A
C32G A40C A41C G81A
C32A G67A A107G A137G
U33A G70C C118G
C32U C54A G92C U144G U148C
C32U A41C G86U C93U
C32A G86A G88A U135C G136C
C32G C38A G42A C54U C105A U109G
C32U A41C U53A U61A C96U G143C
C32G A115C G136A U139A G140A
U31A C57U G71A C75U A91C C93G U135C
C32G U61G C76A G92A C99A U102A U111C C116U C149G
U31A U56A G70A A110C U151A
C32A C87G A115U A137C
U31A C32G U33G G42A C43A A66C G81C C96A A97U U111C A122U U135C U144C G152A
U31G A41C U45A G81A G86A
U31C U61G G68U G94A A97U G128U U151G
U31C G68C G92C C95G A98U C116A A137U
U33A G71A C118G
A30U C132U G141C U145G A150U
U31G A52G C116G A147C
C32A U102A G124C
C32U G68U C125A
C32G G94A G143C
C32G A40U G58C G62A G94A C118G A142C A150G
A30U U55A C103A G117A
A30U U61A G152A
U33C A41C C57U A66G G136C
U31G G65U A97U A98C
U31C G74A C85G C99U
U31C C93U A110G
U31C C87A U102G
U31G C35A A47G G62U A142G U146G
C32G G50U C51U G92A
A30U U53G C54G
C32U C57G G94A C108G G124C G141A
C32G C75U G92U G143A
U31C A37U A106U A122U
C32A A47U C57G G84U G86C G94U C105A A106C A142U
U31C C38U A47U C93G G143C U146C
C32G C38U C72U C87U
U31A A60G G65A G68A A122U
C32G A40U G86A C93G C96G C116A
A30U C103U G140A
C32G U44A A52G A73U C79U C93A C99G C103U C125A
U33A G67U G81U C96G C103G
U33A U45G U61C
U31C C103A C108U
A30U U31A U44A C93U A150U
C32G A41G C43G U56A G58A C125A G143C
A30U U53C A73G U77C G84A A106G U146C
U33C A41C A49G C93A A120G
A30U G42A C93A U111C
U33A U44A C54G G58C A60C C79A C95A A97U A142C
U33A G42C C54U U56A C96U
C32G G84U
U31C A49C C85A U101G G136A G140U
U31C U61A C93U C96A A107U
U31G C32G C57G U102A A121C
U31C A49G G88A
C32G C79U G86U A89C
U31G G34U U61A C95G C123U
U31G U44A C93U C95U C114U
U31G A91G G128A G143A
C32U C76U C87U A89G C105A
U31G G65C C79G C85U C131G
C32U G46U U55A U56A C85U U148C
U33A G67A C87U A106U C118G G128A
U31C C93G C96A G133C
U33C A73G U77G C96U
U33A G68A G71U A106C U135A
C32G A39U C96U C103G A119U G128A
C32A G92A A98G G136C G143C
A30U G86U C118U A150C
U31A A49C A89G C95G
C32A G84C C85G C96G G136A
C32A C57U C79G C85G C96A C123U
U33A U55A C57U G58A G70C C95U C149U
A30U U55A U56A G86U G92A U146C
U31A G46U A73U C76G C96A
C32A C35G C57U U90G G92C
C32U A91C C103G
C32G C36U A41C U61A C87U A97C U102G C125G
U33A G84C C95G A147C
U31A C54A U55A C87A
C32A G59C C85A C131U U148A
C32U C79U
A30U U55G C96G A115C
C32G A37C G48A U56G G80A G84U A97U G152U
C32A A40G U53G G136U A150C
C32G A91G C99U C131U
